Measured values from US20200079851A1 (University of Texas, published 2020).

Key:
human APOE2 [1] = target: T1, human APOE2 (human, UniProt P02649); assay: SPR; LILRB4-Fc captured on Protein A, APOE 1.5625-100 nM
Protocol: (§1) FIGS. 39a-39g—Three APOE isoforms bind to human LILRB4. FIG. 39a-c: Binding kinetics of APOE 2, 3, and 4 to LILRB4-Fc were measured using surface plasmon resonance (SPR). LILRB4-Fc was immobilized on Protein A biosensor tips and incubated with APOE concentrations ranging from 1.5625 nM to 100 nM. […] (FIGS. 39d-f) Binding kinetics of APOE 2, 3, and 4 to LILRB4-Fc were measured using Bio-layer Interferometry (Octet). LILRB4-Fc was immobilized on Protein A biosensor tips and incubated with APOE concentrations ranging from 44 nM to 1176 nM. […] (FIG. 39g) Binding kinetics of APOE 3 to His-LILRB4 was measured using microscale thermophoresis (MST).

human APOE3 [2] = target: T2, human APOE3 (human, UniProt P02649); assay: as above
T2 construct: In MST the protein was unlabeled His-APOE (# CI06, Novoprotein)
Protocol: as §1

human APOE4 [3] = target: T3, human APOE4 (human, UniProt P02649); assay: as above
Protocol: as §1

human APOE2 [4] = target: T1, human APOE2; assay: Bio-layer interferometry (Octet); LILRB4-Fc on Protein A biosensors, APOE 44-1176 nM
Protocol: as §1
(§2) Analyses of the binding interactions between LILRB4-Fc with APOE2, APOE3, and APOE4 were performed using the Octet RED96 (ForteBio, Pall Corporation). All assays were performed with the protein A dip-and-read biosensors (ForteBio) to capture LILRB4-Fc in a kinetics assay buffer (Fortebio), both association (300 s) and dissociation (600 s) of APOEs were monitored. Background wavelength shifts were measured from reference sensors with loading of LILRB4-Fc only and buffer.

human APOE3 [5] = target: T2, human APOE3; assay: as above
Protocol: as §1, §2

human APOE4 [6] = target: T3, human APOE4; assay: as above
Protocol: as §1, §2

Kd (human APOE2 [1]): 5.53 nM
Kd (human APOE3 [2]): 2.48 nM
Kd (human APOE4 [3]): 3.57 nM
Kd (human APOE2 [4]): 60.7 nM
Kd (human APOE3 [5]): 61.7 nM
Kd (human APOE4 [6]): 48.4 nM
B1: LILRB4-ECD-Fc (Fc fusion)
chain: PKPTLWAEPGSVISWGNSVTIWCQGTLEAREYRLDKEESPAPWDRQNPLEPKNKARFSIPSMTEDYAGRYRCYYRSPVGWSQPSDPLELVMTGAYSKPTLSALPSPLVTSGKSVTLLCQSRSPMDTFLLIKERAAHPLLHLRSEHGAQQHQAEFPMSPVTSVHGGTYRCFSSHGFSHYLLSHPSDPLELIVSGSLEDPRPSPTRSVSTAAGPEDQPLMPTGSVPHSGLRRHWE
notes: also called LILRB4-Fc; LILRB4 ECD-Fc fusion protein; not shown: Fc part
